Reference: the RNAGym collection of RNA variant scans (doi:10.1093/nar/gkz1192)
The source gives no read counts; variants with many changes may rest on few reads.

B1: CPEB3 Ribozyme (parent)
chain: UAACAGGGGGCCACAGCAGAAGCGUUCACGUCGCAGCCCCUGUCAGAUUCUGGUGAAUCUGCGAAUUCUGCUGUAUAUCUC

Variants of: B1
Assay: self-cleavage, relative activity (ratio to wild type); higher = more cleavage; in vitro, sequencing
Procedure, shortened: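 Barcoded CPEB3 ribozyme mutants, produced by rounds of error-prone PCR, self-cleaved while being transcribed with T7 RNA polymerase for 5 hours at 37°C and during a subsequent 15 min DNase I step before EDTA was added. Sequencing of template-switched cDNA on Illumina gave cleaved and total reads, and DNA sequencing assigned barcodes to variants. Each variant's relative activity is its cleaved/total read fraction divided by the unmutated ribozyme's fraction, averaged across three batches. A variant needed a minimum of 5 reads.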
For U26A U58C A65G U67A U72C, the self-cleavage was 0.18.
In the case of U26A U66C U69C, the self-cleavage is reported as 0.46.
U26A U69C U72A showed a self-cleavage of 0.37.
Variant U26A U72A U76C has a self-cleavage of 0.91.
Variant U26A U74A U78C has a self-cleavage of 1.25.
Work on U26A U78C U80A yielded a self-cleavage of 0.9.
U26A U80C C81U showed a self-cleavage of 1.09.
U26C A28G A35G A47G U67C gave a self-cleavage of 0.1.
With U26C A28G A45G U72C C79U the self-cleavage was 0.32.
Variant U26C A28G A56U A64U A65G U69C A75G has a self-cleavage of 0.05.
In the case of U26C A28G C34U U78C, the self-cleavage is reported as 0.15.
In the case of U26C A28G C37A, the self-cleavage is reported as 0.1.
Work on U26C A28G C39A yielded a self-cleavage of 0.2.
With U26C A28G C44U U72A the self-cleavage was 0.08.
U26C A28G G30A U48C gave a self-cleavage of 0.39.
U26C A28G U31C A35U gave a self-cleavage of 0.11.
U26C A28G U41A U66C U78A showed a self-cleavage of 0.05.
U26C A28U A35U U48C showed a self-cleavage of 0.06.
With U26C A28U A45G the self-cleavage was 0.18.
U26C A28U A45G A65G gave a self-cleavage of 0.15.
For U26C A28U A47G U67C, the self-cleavage was 0.3.
For U26C A28U A77G, the self-cleavage was 0.3.
With U26C A28U U41C the self-cleavage was 0.4.
Work on U26C A28U U67C yielded a self-cleavage of 0.14.
Work on U26C A28U U69C U80C yielded a self-cleavage of 0.15.
In the case of U26C A28U U78C, the self-cleavage is reported as 0.16.
Work on U26C A35C C38A yielded a self-cleavage of 0.21.
For U26C A35C U58C U80C, the self-cleavage was 0.3.
With U26C A35G A45G A56G the self-cleavage was 0.64.
For U26C A35G A45U U54C, the self-cleavage was 0.79.
U26C A35G C40U U51C gave a self-cleavage of 0.6.
U26C A35G C44U U54C A57G C71U gave a self-cleavage of 0.13.
In the case of U26C A35G U49A U60A U72A, the self-cleavage is reported as 0.18.
U26C A35G U49C A77U gave a self-cleavage of 0.76.
Work on U26C A35G U51A A65G U69G yielded a self-cleavage of 0.51.
U26C A35G U67C gave a self-cleavage of 0.29.
Work on U26C A35G U67C A77U C79U yielded a self-cleavage of 0.35.
Work on U26C A35G U78G yielded a self-cleavage of 1.29.
With U26C A35G U80C the self-cleavage was 1.18.
Variant U26C A35U C40U A56G U58C has a self-cleavage of 0.1.
U26C A35U U41A U66C gave a self-cleavage of 0.2.
Variant U26C A35U U41C has a self-cleavage of 0.26.
Variant U26C A35U U43G has a self-cleavage of 0.14.
For U26C A35U U78A, the self-cleavage was 0.1.
U26C A35U U80C gave a self-cleavage of 0.24.
Variant U26C A45G A56G A77U has a self-cleavage of 0.12.
For U26C A45G A56G U67A U69C, the self-cleavage was 0.06.
U26C A45G A65G U78C showed a self-cleavage of 0.06.
Variant U26C A45G U51A has a self-cleavage of 0.27.
Work on U26C A45G U51C U69C yielded a self-cleavage of 0.14.
U26C A45G U54A U58C gave a self-cleavage of 0.08.
In the case of U26C A45G U54C, the self-cleavage is reported as 0.51.
Work on U26C A45G U60A A65G yielded a self-cleavage of 0.25.
U26C A45G U60C U74C showed a self-cleavage of 0.72.
Variant U26C A45G U72C U78C has a self-cleavage of 0.14.
U26C A47G A56G A65G gave a self-cleavage of 0.08.
Work on U26C A47G A57U yielded a self-cleavage of 0.2.
Variant U26C A47G G63A U69A has a self-cleavage of 0.17.
In the case of U26C A47G G73A U76A, the self-cleavage is reported as 0.76.
For U26C A47U A75U, the self-cleavage was 0.24.
Work on U26C A56C U60A yielded a self-cleavage of 0.4.
With U26C A56G A57G C81U the self-cleavage was 0.22.
U26C A56G A64G U66C gave a self-cleavage of 0.06.
U26C A56G A65U showed a self-cleavage of 0.14.
U26C A56G U74C A75G gave a self-cleavage of 0.6.
Work on U26C A56U A64U U72G yielded a self-cleavage of 0.15.
In the case of U26C A57G C62G, the self-cleavage is reported as 0.23.
With U26C A57G U58C U80A the self-cleavage was 0.19.
With U26C A57U A64G the self-cleavage was 0.11.
Variant U26C A57U C79A has a self-cleavage of 0.37.
U26C A64C U67C U80C showed a self-cleavage of 0.06.
Variant U26C A64G A75U has a self-cleavage of 0.49.
In the case of U26C A64G U80C, the self-cleavage is reported as 0.44.
U26C A64U U69C gave a self-cleavage of 0.15.
Variant U26C A65G U69A A75U has a self-cleavage of 0.09.
U26C A65G U72A gave a self-cleavage of 0.18.
With U26C A65G U80C the self-cleavage was 0.38.
Work on U26C C29A G46A U67A U72A yielded a self-cleavage of 0.06.
Work on U26C C29G A64G yielded a self-cleavage of 0.14.
Variant U26C C29U U31C C37U U58C U67A has a self-cleavage of 0.13.
Variant U26C C29U U41A U54C has a self-cleavage of 0.36.
For U26C C32G A47U A77G, the self-cleavage was 0.06.
In the case of U26C C32U A57C, the self-cleavage is reported as 0.07.
